# According to PubChem BioAssay AID504333 (National Center for Advancing Translational Sciences (NCATS), 2011):
# About 16,000 (4.4%) of roughly 360,000 compounds were called active. The inconclusive results got no clear call from the source; some entries with a clear call stand among them for comparison. Calls follow the shape of the dose curve; as a rule, active = well fitted inhibition curve with a large enough effect; inconclusive = small, poorly fitted or top-dose-only effect; inactive = no such curve, though single readings can be large or run the other way. Potencies beside an inconclusive call are fits to weak or partial responses and may not hold up.
# Molecular target: Bromodomain adjacent to zinc finger domain protein 2B (Homo sapiens) (UniProt Q9UIF8)
# Chain of UniProt Q9UIF8 (Q9UIF8 whole entry, looked up, the tested form may be a part): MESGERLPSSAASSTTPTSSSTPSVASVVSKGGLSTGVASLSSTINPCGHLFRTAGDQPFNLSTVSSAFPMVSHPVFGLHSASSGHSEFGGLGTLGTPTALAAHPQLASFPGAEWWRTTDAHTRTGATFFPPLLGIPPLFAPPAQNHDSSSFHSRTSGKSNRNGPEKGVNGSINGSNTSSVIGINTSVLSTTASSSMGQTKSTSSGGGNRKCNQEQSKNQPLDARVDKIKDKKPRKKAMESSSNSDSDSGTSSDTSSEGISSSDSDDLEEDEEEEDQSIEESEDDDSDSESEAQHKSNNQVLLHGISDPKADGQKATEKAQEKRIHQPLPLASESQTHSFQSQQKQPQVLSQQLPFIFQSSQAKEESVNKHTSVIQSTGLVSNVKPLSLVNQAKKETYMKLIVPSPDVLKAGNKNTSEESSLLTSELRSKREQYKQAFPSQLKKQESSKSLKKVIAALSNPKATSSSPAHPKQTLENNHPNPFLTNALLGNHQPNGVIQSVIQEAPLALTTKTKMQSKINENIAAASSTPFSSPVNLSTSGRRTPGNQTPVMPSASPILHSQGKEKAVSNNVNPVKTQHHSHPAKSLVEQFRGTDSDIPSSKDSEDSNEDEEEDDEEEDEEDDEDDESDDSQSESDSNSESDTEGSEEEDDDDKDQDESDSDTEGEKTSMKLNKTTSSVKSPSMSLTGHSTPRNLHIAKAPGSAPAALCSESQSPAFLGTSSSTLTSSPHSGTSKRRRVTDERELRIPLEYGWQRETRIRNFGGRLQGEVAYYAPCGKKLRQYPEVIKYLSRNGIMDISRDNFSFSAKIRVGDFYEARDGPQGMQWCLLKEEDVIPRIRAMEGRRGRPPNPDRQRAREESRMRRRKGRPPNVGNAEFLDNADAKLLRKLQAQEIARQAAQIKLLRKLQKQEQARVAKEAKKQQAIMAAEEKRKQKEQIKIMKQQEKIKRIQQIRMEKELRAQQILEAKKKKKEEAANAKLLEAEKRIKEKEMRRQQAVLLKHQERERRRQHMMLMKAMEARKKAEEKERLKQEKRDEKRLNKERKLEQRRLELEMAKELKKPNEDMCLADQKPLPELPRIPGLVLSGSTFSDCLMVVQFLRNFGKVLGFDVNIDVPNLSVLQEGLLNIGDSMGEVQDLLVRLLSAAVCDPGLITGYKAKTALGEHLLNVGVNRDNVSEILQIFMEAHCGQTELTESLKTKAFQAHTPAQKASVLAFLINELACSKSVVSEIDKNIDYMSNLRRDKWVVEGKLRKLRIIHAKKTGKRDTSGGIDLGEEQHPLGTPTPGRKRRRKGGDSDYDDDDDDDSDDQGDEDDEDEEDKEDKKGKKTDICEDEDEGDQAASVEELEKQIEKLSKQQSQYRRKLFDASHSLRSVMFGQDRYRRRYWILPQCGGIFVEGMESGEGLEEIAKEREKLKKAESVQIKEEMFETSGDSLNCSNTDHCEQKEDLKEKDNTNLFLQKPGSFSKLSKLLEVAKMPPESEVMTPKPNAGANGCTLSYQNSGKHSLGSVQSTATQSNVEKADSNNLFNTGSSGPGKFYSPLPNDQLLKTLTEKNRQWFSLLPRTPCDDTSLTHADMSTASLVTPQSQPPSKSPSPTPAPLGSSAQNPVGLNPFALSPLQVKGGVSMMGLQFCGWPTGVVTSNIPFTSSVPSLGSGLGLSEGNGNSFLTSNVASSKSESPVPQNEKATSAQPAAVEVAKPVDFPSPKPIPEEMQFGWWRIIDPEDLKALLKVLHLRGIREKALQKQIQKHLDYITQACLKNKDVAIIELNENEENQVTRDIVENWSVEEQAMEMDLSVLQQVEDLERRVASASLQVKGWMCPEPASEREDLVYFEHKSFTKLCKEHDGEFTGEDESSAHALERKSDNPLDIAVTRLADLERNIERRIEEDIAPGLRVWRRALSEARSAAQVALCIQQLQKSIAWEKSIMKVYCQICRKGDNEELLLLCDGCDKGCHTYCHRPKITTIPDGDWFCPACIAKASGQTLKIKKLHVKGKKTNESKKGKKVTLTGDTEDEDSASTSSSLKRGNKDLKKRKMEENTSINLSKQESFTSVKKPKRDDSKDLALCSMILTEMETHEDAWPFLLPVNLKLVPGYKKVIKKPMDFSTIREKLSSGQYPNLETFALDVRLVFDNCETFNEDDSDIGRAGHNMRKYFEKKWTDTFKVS
# Assay: qHTS Assay for Inhibitors of BAZ2B; also: nearly all actives have a fitted effect of over 60% in size
# Conditions: AlphaScreen BAZ2B-H3K14Ac peptide displacement; series mostly up to 114 µM
# How it was run: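 BAZ2B (50 nM) with biotin-H3(5-23)K14Ac peptide (50 nM) in PBS pH 7.4, 0.01% Tween-20, preformed 30 min, then compound 30 min at room temperature; top concentration 110uM. AlphaScreen streptavidin donor/nickel chelate acceptor beads (10 ug/mL final), 20 min dark, signal read.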
# Potency is read from the fitted curve at half-maximal effect; tags tell the direction and shape of the fitted curve.
row,SMILES,Potency
1,CC1CCCN(S(=O)(=O)c2ccc(NC(=O)c3nc(SC(C)C)ncc3Cl)cc2)C1 (configuration not stated),"inconclusive: 89.1 µM [inhibitor, partial curve]"
2,O=C(CSc1nnc(Cc2cc(=O)[nH]c(=O)[nH]2)n1-c1ccc(F)cc1)NC1CCCC1,inactive
3,Cn1c(N)c(C(=O)COC(=O)C2=COCCO2)c(=O)n(C)c1=O,"inconclusive: 12.6 µM [inhibitor, single point]"
4,O=C(CSc1nc(-c2ccccc2)nc2c1CCCC2)c1ccc(F)cc1,inactive
5,Cc1ccc(S(=O)(=O)c2nc(-c3ccco3)oc2SC(C)c2ccccc2)cc1 (configuration not stated),inactive
6,FC(F)Oc1ccc(-c2csc(NNC3=NCCCCC3)n2)cc1,"inconclusive: 39.8 µM [inhibitor, partial curve]"
7,COc1ccccc1C(=O)NC(CCSC)C(=O)NCCCSc1ccccc1 (configuration not stated),"inconclusive: 79.4 µM [inhibitor, single point]"
8,O=C(O)c1cccc(N2C(=O)C3C4C=CC(C4=C(c4ccccc4)c4ccccc4)C3C2=O)c1 (configuration not stated),active: 56.2 µM
9,O=C(CCc1nc2ccccc2c(=O)[nH]1)Nc1nnc(SCc2ccccc2)s1,inactive
10,O=C(Cc1cccs1)Nc1cccc(-c2nc3cc4ccccc4cc3[nH]2)c1,inactive
11,COc1ccccc1Nc1cc(C(=O)NCCCN(C)c2ccccc2)c2ccccc2n1,inactive
12,Cc1cc(-c2csc(NC(=O)c3ccc(=O)n(C)n3)n2)c(C)n1CC1CCCO1 (configuration not stated),"inconclusive: 89.1 µM [inhibitor, single point]"
13,COc1cc2c(c3oc(-c4ccccc4)cc(=O)c13)C=CC(C)(C)O2,"inconclusive: 79.4 µM [inhibitor, single point]"
14,Cc1ccccc1C(=O)c1c[nH]c(C(=O)NCc2cccs2)c1,"inconclusive: 89.1 µM [inhibitor, single point]"
15,C/C(N)=C(/C#N)C(=O)COC(=O)c1cc(C)n(-c2ccc(F)cc2)c1C,"inconclusive: 79.4 µM [inhibitor, single point]"
16,Cc1ccc(C)c(Cn2nnc(C(=O)NCc3ccc(Cl)cc3Cl)c2N)c1,"inconclusive: 8.91 µM [inhibitor, full curve, poor fit]"
17,O=C1OCCC1S(=O)(=O)c1ccc2ccccc2c1 (configuration not stated),"inconclusive: 2.82 µM [inhibitor, single point]"
18,O=C(CCc1nnc2ccc(N3CCC4(CC3)OCCO4)nn12)NCc1ccc(F)cc1,"inconclusive: 50.1 µM [inhibitor, partial curve]"
19,Cc1ccc2nc(N/N=C/c3ccco3)cc(C)c2c1,active: 44.7 µM
20,C=CCc1ccccc1OCC(O)CN1CCN(c2ccc(C)cc2)CC1 (configuration not stated),active: 28.2 µM
21,CCc1ccccc1N(C)S(=O)(=O)c1ccc2[nH]cc(C(=O)O)c(=O)c2c1,"inconclusive: 50.1 µM [inhibitor, partial curve]"
22,O=C(Nc1ccc(Nc2ccccc2)cc1)c1ccco1,"inconclusive: 39.8 µM [inhibitor, partial curve]"
23,COc1ccc(N(CC(=O)NCc2ccc(F)cc2)S(=O)(=O)c2c(C)n[nH]c2C)cc1,inactive
24,O=C(c1ccc(CS(=O)Cc2ccc(Cl)cc2)o1)N1CCN(c2ccc(F)cc2)CC1 (configuration not stated),"inconclusive: 39.8 µM [inhibitor, full curve, poor fit]"

row,SMILES,Potency
1,COC(=O)c1[nH]c2cc(C)ccc2c1NC(=O)CN1CCCc2ccccc21,active: 44.7 µM
2,Cc1cc(OCC(=O)NCc2ccncc2)ccc1Cl,inactive
3,COc1ccc(S(=O)(=O)N(Cc2ccc(OC)c(OC)c2)Cc2ccco2)cc1,"inconclusive: 44.7 µM [inhibitor, partial curve]"
4,CN(C)CCCN(C(=O)c1ccc(S(=O)(=O)N2CCc3ccccc3C2)cc1)c1nc2c(F)cc(F)cc2s1,"inconclusive: 10 µM [inhibitor, full curve, poor fit]"
5,Cc1cc(=O)[nH]c(N2CCN(Cc3ccccc3)CC2)n1,inactive
6,COc1ccc(-c2cc(-c3ccco3)[nH]c(=O)c2C#N)cc1,active: 56.2 µM
7,CCN1C(=O)c2cccc3c(S(=O)(=O)N(C(=O)c4ccncc4)c4ccc(OC)cc4)ccc1c23,inactive
8,Cc1ccc(-n2ccnc(NCc3ccccc3)c2=O)cc1C,"inconclusive: 44.7 µM [inhibitor, partial curve]"
9,CCN(CC)c1ccc(NC(=O)c2cnn(CC)c2)cc1,active: 39.8 µM
10,CCc1nc(CN2CCCC(C(=O)c3ccc4c5c(cccc35)CC4)C2)c(C)[nH]1 (configuration not stated),"inconclusive: 56.2 µM [inhibitor, partial curve]"
11,CCc1nn(C(CC)C(=O)NCCCc2ccccc2)c(=O)c2cc3occc3n12 (configuration not stated),"inconclusive: 22.4 µM [inhibitor, full curve]"
12,O=C(O)COc1ccc(-c2nccc(-c3ccccn3)n2)cc1,active: 79.4 µM
13,Cc1cc(C)c(NC(=O)c2cccc3c2C(=O)N(C2CCCCC2)C3)c(C)c1,"inconclusive: 79.4 µM [inhibitor, single point]"
14,COc1cc(/C=C(\C#N)c2nc3ccc(C)cc3[nH]2)cc([N+](=O)[O-])c1O,active: 12.6 µM
15,N#Cc1c(=O)c2nc(NCc3ccccc3)ncc2n2ccccc12,"inconclusive: 89.1 µM [inhibitor, single point]"
16,CCOc1cc(Br)cc(/C=C2\SC(=Nc3ccccc3)NC2=O)c1O,inactive
17,COc1cc(NC(=O)c2cc(Cl)c(OC)c(Cl)c2)ccc1NC(=O)c1cc2ccccc2o1,inactive
18,O=C(COc1ccc(Cl)cc1Cl)NC1CCSC1=O (configuration not stated),inactive
19,O=C(NN=C1c2ccccc2-c2ccccc21)c1ccccc1,active: 28.2 µM
20,Cc1ccc(C2/C(=C(/O)c3ccc(OC(C)C)cc3)C(=O)C(=O)N2CCN2CCOCC2)cc1 (configuration not stated),"inconclusive: 89.1 µM [inhibitor, single point]"
21,C#CCOCCOCCOCCNc1nc(N2CCN(C(=O)CCCCCCCCCCNC(=O)[C@H](CO)n3cc(CCCSC)nn3)CC2)nc(N2CCN(C(=O)CCCCCCCCCCNC(=O)[C@H](CCCN=C(N)N)n3cc(C[C@@H](C)CC)nn3)CC2)n1,"inconclusive: 44.7 µM [inhibitor, partial curve]"
22,CCN(CC)c1ccc(NC(=O)c2ccccc2Br)cc1S(=O)(=O)Nc1ccccc1OC,"inconclusive: 70.8 µM [inhibitor, single point]"
23,CCOc1ccc(NC(=S)NC(=O)c2c(Cl)cnn2CC)c([N+](=O)[O-])c1,"inconclusive: 10 µM [inhibitor, full curve]"
24,O=C(O)COc1ccccc1/C=C1\SC(=S)N(NC(=O)c2ccccc2O)C1=O,active: 14.1 µM

row,SMILES,Potency
1,CCOC(=O)/C(C#N)=C/C=C1/C=CC=CN1C,"inconclusive: 79.4 µM [inhibitor, single point]"
2,Cc1ccc(CCNC(=O)C2CCCN(C(=O)c3cc4sccc4n3C)C2)cc1 (configuration not stated),inactive
3,CCC(C)NC(=O)c1ccc(-n2c(-c3ccccc3)cc3c2CCCC3)cc1 (configuration not stated),"inconclusive: 44.7 µM [inhibitor, partial curve]"
4,COc1ccc(N2CCN(C(=O)C(Cc3ccccc3)n3cccc3)CC2)cc1 (configuration not stated),active: 28.2 µM
5,COc1ccccc1C(=O)Nc1ccc2c(c1)CN(Cc1cnc(C)s1)CC2,"inconclusive: 79.4 µM [inhibitor, single point]"
6,COc1ccc(-c2[nH]ncc2CN2CCN(Cc3cccs3)CC2)cc1F,"inconclusive: 89.1 µM [inhibitor, single point]"
7,Cc1[nH]c2ccccc2c1SCC(=O)Nc1nccs1,"inconclusive: 70.8 µM [inhibitor, single point]"
8,CCCc1nc2sc3c(=O)[nH]cnc3c2c2c1CCCC2,inactive
9,CCCNC(=O)c1onc(CSc2ccc(F)cc2)c1C(=O)NCCC,inactive
10,CC1CN(C(=O)c2ccccc2OCc2ccc(Cl)cc2Cl)CC(C)O1 (configuration not stated),inactive
11,O=C(O)C(c1ccccc1)N1C(=O)/C(=C\c2ccc(-c3ccc(Br)cc3)o2)SC1=S (configuration not stated),active: 20 µM
12,COc1ccc(CNS(=O)(=O)CCNC(=O)c2ccccc2)cc1,inactive
13,C=CCn1cn[nH]c1=S,"inconclusive: 89.1 µM [inhibitor, single point]"
14,COc1ccc(C2=NS(=O)(=O)N(C)C(C(=O)Nc3cc(OC)c(OC)c(OC)c3)=C2)cc1,"inconclusive: 44.7 µM [inhibitor, partial curve]"
15,NC(=O)CC(NC(=O)c1ccccc1)c1ccc(N2CCc3ccccc3C2)c([N+](=O)[O-])c1 (configuration not stated),"inconclusive: 70.8 µM [inhibitor, single point]"
16,CSC(=NC#N)N1CCN(C(c2ccccc2)c2ccccc2)CC1,"inconclusive: 89.1 µM [inhibitor, single point]"
17,CCc1nnc(NS(=O)(=O)c2ccc(N/C=C\C(=O)c3ccc(F)cc3)cc2)s1,"inconclusive: 70.8 µM [inhibitor, partial curve]"
18,O=C(c1cc(COc2ccc(F)cc2F)on1)N1CCN(C(=O)c2ccco2)CC1,"inconclusive: 79.4 µM [inhibitor, single point]"
19,Cc1cnc(C(=O)OCC(=O)N=c2sccn2Cc2ccccc2Cl)cn1,inactive
20,C=CCc1cccc2cc(C(=O)Nc3cccc(Cl)c3)c(=O)oc12,inactive
21,O=C(NCc1ccco1)c1cccs1,inactive
22,Oc1c(Cl)cc(Cl)cc1CNc1ccc(Br)cn1,inactive
23,CN(C)CCCN(C(=O)c1ccc2c(c1)CCCC2)c1nc2c(F)cccc2s1,"inconclusive: 50.1 µM [inhibitor, partial curve]"
24,CC(C)c1cccc(C(C)C)c1OC(=O)[C@H]1OC(C(C)(C)C)=C[C@@H]1c1ccccc1,"inconclusive: 12.6 µM [inhibitor, single point]"
